Results reported in paper PMC4336329 (PLoS ONE, 2015).
The whole screen tested about 310,000 compounds, of which about 14,000 (4.5%) showed an effect of 50% or more. The effect is printed as a negative number. Some of the results follow.

Molecular target: human ether-à-go-go-related gene (hERG) potassium channel (human, UniProt Q12809)
Test: primary screen, population patch clamp on CHO cells stably expressing hERG
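Note: peak tail current of the secondary pulse compared with the same well before compound.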

Sequence of human ether-à-go-go-related gene (hERG) potassium channel (Q12809 whole entry, looked up): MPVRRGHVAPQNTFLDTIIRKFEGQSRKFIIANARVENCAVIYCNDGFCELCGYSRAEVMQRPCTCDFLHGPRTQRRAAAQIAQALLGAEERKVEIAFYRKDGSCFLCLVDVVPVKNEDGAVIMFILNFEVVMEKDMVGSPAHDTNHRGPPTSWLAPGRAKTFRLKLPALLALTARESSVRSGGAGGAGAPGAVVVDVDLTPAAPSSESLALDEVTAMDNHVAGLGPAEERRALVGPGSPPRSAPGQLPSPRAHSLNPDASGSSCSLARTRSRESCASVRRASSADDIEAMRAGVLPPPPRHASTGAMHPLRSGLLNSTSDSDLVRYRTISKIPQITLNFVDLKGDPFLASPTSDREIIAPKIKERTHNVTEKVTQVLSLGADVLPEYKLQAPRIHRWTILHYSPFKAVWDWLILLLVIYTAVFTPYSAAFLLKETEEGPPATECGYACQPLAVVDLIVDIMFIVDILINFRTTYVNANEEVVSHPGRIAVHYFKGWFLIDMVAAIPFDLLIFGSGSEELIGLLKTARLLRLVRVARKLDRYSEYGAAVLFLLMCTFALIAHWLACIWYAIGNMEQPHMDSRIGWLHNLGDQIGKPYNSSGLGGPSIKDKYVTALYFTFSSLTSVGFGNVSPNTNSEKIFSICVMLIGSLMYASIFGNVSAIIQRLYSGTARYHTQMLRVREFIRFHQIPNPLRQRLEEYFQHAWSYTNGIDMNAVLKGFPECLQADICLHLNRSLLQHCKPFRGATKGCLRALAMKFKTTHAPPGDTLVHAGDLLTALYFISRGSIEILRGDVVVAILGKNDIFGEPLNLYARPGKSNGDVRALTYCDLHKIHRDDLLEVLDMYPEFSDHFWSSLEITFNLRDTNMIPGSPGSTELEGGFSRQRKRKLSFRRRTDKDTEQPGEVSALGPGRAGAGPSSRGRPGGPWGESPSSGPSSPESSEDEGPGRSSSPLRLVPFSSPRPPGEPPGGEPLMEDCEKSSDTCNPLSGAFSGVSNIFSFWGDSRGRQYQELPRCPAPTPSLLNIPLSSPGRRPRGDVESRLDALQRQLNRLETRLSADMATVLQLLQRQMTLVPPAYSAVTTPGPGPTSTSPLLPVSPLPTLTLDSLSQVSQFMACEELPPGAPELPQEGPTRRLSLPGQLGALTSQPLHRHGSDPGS

| Structure (SMILES) | hERG current change (%, negative = inhibition) at 10uM [%] |
| --- | --- |
| CN(C(=O)COC(=O)CCc1nc2ccccc2c(=O)[nH]1)C1CCS(=O)(=O)C1 (stereo not drawn) | 15.9 |
| C/C(=N\O)c1ncc(C(F)(F)F)cc1Cl | -17.9 |
| O=C(Nc1cccc(S(=O)(=O)N2CCOCC2)c1)c1c2c(nc3ccccc13)CCC2 | 1.27 |
| CCOc1ccc2nc(N3CCC(C(=O)NC4CCCCC4)CC3)sc2c1 | 11.2 |
| COc1cccc(NC(=O)CSc2nc3ccccc3c(=O)n2CCCC(=O)NCCCN2CCOCC2)c1 | -59.8 |
| Clc1cccc(Cl)c1Cn1ccc(C2CC2)n1 | -17.3 |
| CS(=O)(=O)N1CCc2cc(C(=O)OCC(=O)c3ccccc3)ccc21 | 10.1 |
| CS(=O)(=O)c1cccc(-c2nnc(NC(=O)CCS(=O)(=O)c3ccccc3)o2)c1 | 3.82 |
| CCOc1cc(C2Nc3ccccc3C(=O)N2c2ccccc2OC)ccc1O (stereo not drawn) | 1.46 |
| CC1(C)CC(=O)C2=C(C1)Nc1ccccc1N1C(=O)c3ccccc3C21 (stereo not drawn) | -3.07 |
| COc1ccc(-c2nc3ccccc3n2CCC(C)C)cc1OC | -30.9 |
| O=C(CSc1nc2[nH]c(=O)cc(O)c2s1)Nc1ccc(Br)cc1 | 10.4 |
| COc1ccccc1C(=O)NCCC(=O)Nc1cccc(S(=O)(=O)N2CCCC2)c1 | -5.97 |
| O=C(CCS(=O)(=O)c1ccc(Br)cc1)N1CCCCCC1 | -25.3 |
| Cc1cc(C)cc(NS(=O)(=O)c2cc(C(=O)NCc3ccccn3)ccc2Cl)c1 | -16.8 |
| COc1cc(S(=O)(=O)N2CCCCC2)ccc1NC(C)=O | -9.05 |
| CCOc1ccc(-n2c(O)c(N=Nc3ccc([N+](=O)[O-])cc3)c(=O)[nH]c2=O)cc1 | 28.8 |
| Cc1c(C(=O)NCCSCc2ccco2)cccc1[N+](=O)[O-] | -5.94 |
| COC(=O)/C=C1/N/C(=N\c2nc(C)cc(C)n2)N(c2ccc(Cl)cc2)C1=O | 3.82 |
| COc1cc2c(cc1OC)C(c1ccc(Br)cc1)NC(=O)C2 (stereo not drawn) | 12.1 |
| Cc1c(CN(C)CCc2ccccc2)c(=O)n(-c2ccccc2)n1C | -8.92 |
| CCC(=O)N(c1nnc(SCC(=O)NN2C(=O)NC3(CCCCC3)C2=O)s1)C1CC1 | 10.9 |
| COc1ccc(C2(CNC(=O)c3ccco3)CCOCC2)cc1 | 3.72 |
| CCC1CCCCN1C(=O)NC(=O)c1ccccc1 (stereo not drawn) | 30.3 |
